Values marked as one replicate rest on one cluster of the flow cell; about a third of the high ones do not repeat.
Tested on: ATP
Experiment: switch fluorescence ratio, 500 uM ATP over buffer (Cy3 cluster intensity, sum of 5 cycles each) (fold (ratio)); higher = stronger signal-on switching upon ATP binding; sequences stand for … in TCGTCGGCAGCGTCAGATGTGTATAAGAGACAGTTTTTTTTTTTTTTTTTTTTTTTTT…TC
Conditions: aptamer strand: ATP DNA aptamer (quencher-CACCTGGGGGAGTATTGCGGAGGAAGG + anchor), 100 nM annealed; ATP concentration: 500 uM; one replicate
Summary of the method: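 The quencher-labelled ATP aptamer, at 100 nM, was annealed to Cy3-labelled switching-strand clusters on a modified Illumina MiSeq flow-cell. The clusters were imaged in selection buffer, then after 15 min with 500 uM ATP at 22 °C, and this buffer/ATP cycle ran five times with NaOH stripping and re-annealing between runs. Per-cluster fluorescence ratios, summed target-cycle over summed buffer-cycle Cy3 intensity, were averaged per switch-domain sequence. Clusters outside 100-1000 RFU were excluded.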
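Note: ATP exposure 15 min at 22 °C before imaging.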

In the case of CAAGTAACGC, the switch fluorescence ratio is reported as 1.05.

ATGTAGTAAT was tested, and the switch fluorescence ratio was 1.01.

CGAAAGTTGT was tested, and the switch fluorescence ratio was 0.996.

Work on TACTCAGTT yielded a switch fluorescence ratio of 1.04.

Sequence TACGACGTG has a switch fluorescence ratio of 1.02.

GTTCATGTCG gave a switch fluorescence ratio of 1.04.

Sequence TTTAATTTCC has a switch fluorescence ratio of 1.02.

In the case of CGAATACCGC, the switch fluorescence ratio is reported as 1.1.

GATGACCACA was tested, and the switch fluorescence ratio was 1.1.

TCGATTTAT showed a switch fluorescence ratio of 1.04.

ACACAGTACA was tested, and the switch fluorescence ratio was 1.31.

AGATGGACAG showed a switch fluorescence ratio of 0.969.

With GTGGAATCGT the switch fluorescence ratio was 1.02.

With TTATCTAGC the switch fluorescence ratio was 1.

In the case of AGAGGTCT, the switch fluorescence ratio is reported as 1.03.

TGGCCGCCGC showed a switch fluorescence ratio of 1.

Work on CAAGGATATA yielded a switch fluorescence ratio of 1.01.

GCGGTTGGGT showed a switch fluorescence ratio of 0.941.

GCACTCCGTC showed a switch fluorescence ratio of 1.35.

AATTGCCGG showed a switch fluorescence ratio of 1.05.

Work on TCAAGTGCGT yielded a switch fluorescence ratio of 0.97.

TTTATGTACC gave a switch fluorescence ratio of 1.11.

In the case of TTCGGCAGCG, the switch fluorescence ratio is reported as 1.04.

In the case of TTTACCGACT, the switch fluorescence ratio is reported as 1.02.

Sequence CTCAATGCTA has a switch fluorescence ratio of 1.15.

Sequence CAGTAGATTG has a switch fluorescence ratio of 0.999.

For TACTATCGCC, the switch fluorescence ratio was 1.11.

Sequence AAATCCGTG has a switch fluorescence ratio of 1.

Sequence ATCCTTTGCG has a switch fluorescence ratio of 1.02.

GAACCCATTT gave a switch fluorescence ratio of 1.05.

CTCAGGTACT gave a switch fluorescence ratio of 1.08.

With GTTGCGGGTC the switch fluorescence ratio was 0.996.

In the case of GGCAGGCAAA, the switch fluorescence ratio is reported as 1.03.

GGGCTTGATT was tested, and the switch fluorescence ratio was 0.999.

CTGGGTTATA gave a switch fluorescence ratio of 1.01.

For AGACGCGGAT, the switch fluorescence ratio was 1.05.

In the case of ACGTGCGGTA, the switch fluorescence ratio is reported as 0.995.

GCTTCCCTCG was tested, and the switch fluorescence ratio was 1.55.

In the case of GGGATCGTCA, the switch fluorescence ratio is reported as 1.01.

With GTAATGGG the switch fluorescence ratio was 1.

ATGCGTAATC gave a switch fluorescence ratio of 1.15.

In the case of GAATCACACG, the switch fluorescence ratio is reported as 1.02.

GTCACATCAT showed a switch fluorescence ratio of 1.02.

CTCGCTTGAT gave a switch fluorescence ratio of 0.989.

TTGCTGCTG was tested, and the switch fluorescence ratio was 0.991.

Sequence AATAGTTCCC has a switch fluorescence ratio of 1.02.

With GCGGCGTCTA the switch fluorescence ratio was 1.06.

For CGCTCATCTC, the switch fluorescence ratio was 1.41.

In the case of TACGTTGGAT, the switch fluorescence ratio is reported as 0.977.

AGTGATCATG gave a switch fluorescence ratio of 0.948.

In the case of TTCTGCTCG, the switch fluorescence ratio is reported as 0.983.

For GCACCTATCG, the switch fluorescence ratio was 1.05.

For ACGGCTAAAT, the switch fluorescence ratio was 1.04.

With ATATGCGACC the switch fluorescence ratio was 1.2.

TGAATTCTGT gave a switch fluorescence ratio of 1.04.

GCAGGCGAGG gave a switch fluorescence ratio of 1.03.

Work on GCCTATTGCA yielded a switch fluorescence ratio of 0.989.

Sequence GACCTCCATA has a switch fluorescence ratio of 1.12.

Work on ACGCGGAGTT yielded a switch fluorescence ratio of 1.02.

With GTAAGTAAGT the switch fluorescence ratio was 1.04.

For GAATAGAGCA, the switch fluorescence ratio was 1.08.

AGATGAAGGC was tested, and the switch fluorescence ratio was 0.983.

In the case of TTACAGGCTC, the switch fluorescence ratio is reported as 1.03.

CTCCCAGAGT showed a switch fluorescence ratio of 1.33.

Sequence AATTAGTGTA has a switch fluorescence ratio of 0.984.

In the case of ACTTCGGTCT, the switch fluorescence ratio is reported as 1.03.

AAATATTCCA showed a switch fluorescence ratio of 1.06.

For GAACCTTTTC, the switch fluorescence ratio was 1.62.

For GGACATTGGA, the switch fluorescence ratio was 0.994.

For TTCGAAAGC, the switch fluorescence ratio was 1.15.

For TGAGAACTGT, the switch fluorescence ratio was 1.02.

For AGATTAGTTA, the switch fluorescence ratio was 1.01.

Work on CGTTTACCAT yielded a switch fluorescence ratio of 0.971.

AGACGATGTT gave a switch fluorescence ratio of 0.973.

CATTCGACTT showed a switch fluorescence ratio of 1.07.

CATTTGAGAC showed a switch fluorescence ratio of 1.02.

For ATTACGACTT, the switch fluorescence ratio was 1.05.

Sequence AGGGGTCTC has a switch fluorescence ratio of 0.96.

In the case of AGGAGGCTTT, the switch fluorescence ratio is reported as 1.02.

AAGTTTAGAT was tested, and the switch fluorescence ratio was 1.01.

In the case of CAGGAAGAGC, the switch fluorescence ratio is reported as 1.03.

Work on CGGGTTGTAT yielded a switch fluorescence ratio of 1.

For TTCGACCGCG, the switch fluorescence ratio was 0.958.

AAGTGACGTT gave a switch fluorescence ratio of 1.03.

For GGCCTACGTT, the switch fluorescence ratio was 0.961.

TCAAACCCGG gave a switch fluorescence ratio of 1.04.

With TTGAATGATA the switch fluorescence ratio was 0.998.

Work on GGATGGCAGA yielded a switch fluorescence ratio of 1.05.

TAAATTTG showed a switch fluorescence ratio of 0.989.

Work on TTTTGTAGT yielded a switch fluorescence ratio of 0.985.

CTTGCGCGCC was tested, and the switch fluorescence ratio was 1.

For ATGGTGGTAG, the switch fluorescence ratio was 1.03.

In the case of CTAGAACATG, the switch fluorescence ratio is reported as 0.994.

With GTTTCTCCT the switch fluorescence ratio was 1.04.

GGTTCGGACT was tested, and the switch fluorescence ratio was 1.03.

TCGTGCAGAG showed a switch fluorescence ratio of 1.05.

Sequence ACGTCTGGGG has a switch fluorescence ratio of 1.01.

AAGGACCTTT was tested, and the switch fluorescence ratio was 0.983.

Work on ACCAGCTACC yielded a switch fluorescence ratio of 1.18.

Work on GCAGAAAAGG yielded a switch fluorescence ratio of 1.23.

In the case of GGGCATTTGC, the switch fluorescence ratio is reported as 0.976.

GTTTGGACAT was tested, and the switch fluorescence ratio was 0.996.

In the case of TGTTTACAAA, the switch fluorescence ratio is reported as 1.01.

For GATCTAGAAC, the switch fluorescence ratio was 1.01.

Work on TAAATCCTAG yielded a switch fluorescence ratio of 1.04.

For CGACACCATA, the switch fluorescence ratio was 1.34.

GACAGAATTG gave a switch fluorescence ratio of 1.03.

For TGGCTTCAGC, the switch fluorescence ratio was 0.969.

With AGTCTAACTA the switch fluorescence ratio was 0.968.

With GGGCTAAACG the switch fluorescence ratio was 0.985.

Sequence ACGGATTGTT has a switch fluorescence ratio of 0.971.

GTTCTTTTGT showed a switch fluorescence ratio of 0.958.

Sequence AGTGGGAGTC has a switch fluorescence ratio of 1.05.

With CCTGCCCTTG the switch fluorescence ratio was 1.06.

CGTCTAATAA gave a switch fluorescence ratio of 1.11.

CTCGACTCTT gave a switch fluorescence ratio of 1.03.

CTTAGCTGTC showed a switch fluorescence ratio of 1.02.

Sequence CTGAAAGATG has a switch fluorescence ratio of 0.965.

With CAGATTAGAC the switch fluorescence ratio was 1.04.

AGACGCCGA showed a switch fluorescence ratio of 0.977.

For ACATGTTGAA, the switch fluorescence ratio was 1.

With TGTTTTCTTG the switch fluorescence ratio was 1.

ATTATGACGC was tested, and the switch fluorescence ratio was 1.08.

Work on CGAATCGGTT yielded a switch fluorescence ratio of 0.964.

GTTCCCTTCA was tested, and the switch fluorescence ratio was 1.21.

Sequence ACTTAGTCTT has a switch fluorescence ratio of 1.06.

With ACACAGTGTG the switch fluorescence ratio was 1.

Sequence CATCGGGAGA has a switch fluorescence ratio of 0.967.

ATCATAGTGT was tested, and the switch fluorescence ratio was 0.98.

Sequence GAAGATTGCG has a switch fluorescence ratio of 0.994.

CTACTAAGGG showed a switch fluorescence ratio of 1.02.

TGCCGGGCAC gave a switch fluorescence ratio of 1.39.

Sequence GGGTTCTCGT has a switch fluorescence ratio of 0.992.

Work on GTCTTAGAGT yielded a switch fluorescence ratio of 0.985.

Sequence AAATGTGAAA has a switch fluorescence ratio of 0.984.

For AGGTCATGGG, the switch fluorescence ratio was 0.974.

Work on AAGATCGTC yielded a switch fluorescence ratio of 1.01.

Work on TTAGTCACTA yielded a switch fluorescence ratio of 1.02.

Work on TGTACGAACA yielded a switch fluorescence ratio of 1.29.

Sequence TGGATACTGT has a switch fluorescence ratio of 1.03.

In the case of TGTCTAAGA, the switch fluorescence ratio is reported as 1.06.

With ATAGAGAAGT the switch fluorescence ratio was 0.992.

Sequence CTGGTGAATT has a switch fluorescence ratio of 1.02.

GGACAGGTTG gave a switch fluorescence ratio of 0.954.

Work on GGCGTGCCGG yielded a switch fluorescence ratio of 0.947.

Work on GGGTTCGAGC yielded a switch fluorescence ratio of 0.999.

With TGCTTTACGT the switch fluorescence ratio was 1.01.

With CTCCTTACAC the switch fluorescence ratio was 1.57.

GCGCCCCTTT gave a switch fluorescence ratio of 0.978.

AGAAAGTATG was tested, and the switch fluorescence ratio was 0.998.

With GCCCCCGATT the switch fluorescence ratio was 0.996.

Sequence TGATAGCAGA has a switch fluorescence ratio of 0.963.

Work on GCTATAGCAG yielded a switch fluorescence ratio of 1.02.

AGCGCAAAGA showed a switch fluorescence ratio of 1.04.

ATCCTGTGCG showed a switch fluorescence ratio of 1.03.

In the case of GTACTACTTG, the switch fluorescence ratio is reported as 1.

Work on TGGCGGTTAC yielded a switch fluorescence ratio of 1.04.

For GCCGCTCAAG, the switch fluorescence ratio was 1.02.

In the case of ATGGAGGGA, the switch fluorescence ratio is reported as 0.972.

TAGCTTTGGC showed a switch fluorescence ratio of 0.97.

Work on TCTTGTGAGC yielded a switch fluorescence ratio of 1.03.

With ACTAACATG the switch fluorescence ratio was 1.12.

In the case of GTAGACCGTT, the switch fluorescence ratio is reported as 1.04.

TCGCTTCGCC was tested, and the switch fluorescence ratio was 1.07.

For ATGGGCTTAT, the switch fluorescence ratio was 1.02.

Sequence AAAAGGCAGG has a switch fluorescence ratio of 0.992.

For CTAATGTGTG, the switch fluorescence ratio was 0.939.

Work on CCCGATCGAT yielded a switch fluorescence ratio of 1.05.

For GGCGGCGGCT, the switch fluorescence ratio was 1.09.

For CATGTAAGAG, the switch fluorescence ratio was 0.977.

AACAAAACT showed a switch fluorescence ratio of 0.979.

With AGAGGTGTT the switch fluorescence ratio was 1.03.

AAGAGAACAA showed a switch fluorescence ratio of 1.02.

Sequence ACACGATGGT has a switch fluorescence ratio of 1.06.

GGAGTTCAGA showed a switch fluorescence ratio of 0.993.

In the case of TCGGGAGATA, the switch fluorescence ratio is reported as 0.993.

For TGGAGTTTCC, the switch fluorescence ratio was 1.04.

For CACTCAAGCC, the switch fluorescence ratio was 1.15.

Work on TTGGGATCAT yielded a switch fluorescence ratio of 1.03.

In the case of TATATGGTAT, the switch fluorescence ratio is reported as 1.06.

For CAACTGAAAG, the switch fluorescence ratio was 1.01.

With GAATTTATGT the switch fluorescence ratio was 0.95.

With GCTAACTTTC the switch fluorescence ratio was 1.07.

With ACAGAAATCG the switch fluorescence ratio was 1.03.

GGGAATAGG gave a switch fluorescence ratio of 0.986.

ATCAAACTTA gave a switch fluorescence ratio of 1.01.

TACGGCCTTT showed a switch fluorescence ratio of 1.03.

Work on GTTGGAAATT yielded a switch fluorescence ratio of 0.997.

With AGAGACGCTG the switch fluorescence ratio was 0.991.

Sequence TTCCGGATCT has a switch fluorescence ratio of 1.14.

TTTTCGAACA gave a switch fluorescence ratio of 1.

Work on TTGCCTGAG yielded a switch fluorescence ratio of 1.1.

Work on GAGCCTTAAG yielded a switch fluorescence ratio of 1.05.

GTTAGGGGGC gave a switch fluorescence ratio of 1.02.

TGATATTCTG gave a switch fluorescence ratio of 1.01.

Sequence CCTACCCACG has a switch fluorescence ratio of 1.43.

In the case of ATCTGCTGCT, the switch fluorescence ratio is reported as 1.01.

AGAATGAAAG was tested, and the switch fluorescence ratio was 0.97.

For AGAGTCAACA, the switch fluorescence ratio was 1.04.

AATCACAAAC gave a switch fluorescence ratio of 1.16.

Work on CGTGTGGGTA yielded a switch fluorescence ratio of 1.03.
